Results from the supplement of paper PMC10037445.
Several values for one entry are separate records, joined by “and”; a condition that tells them apart may be missing. Identical values can stand only once. The full ranking holds about 2,900 compounds; the median of “NF-kB SEAP reporter activity, fold change vs agonist alone” is about 0.99, and the highest 2% start at about 2.6. This is one part of the list.

Tests used:
RAW-Dual [1] = test: NF-kB SEAP reporter activity, fold change vs agonist alone; higher = enhanced NF-kB activity
Procedure, shortened: (§1)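 After 50 nL of library stock was delivered by pin tool to RAW-Dual macrophages (50,000 cells/well, DMEM, 384-well plates), a PRR agonist was added 1 h later and the plates were kept at 37 °C, 5% CO2. Twenty hours later, IRF was read from supernatant by QuantiLuc luminescence and NF-κB by QuantiBlue absorbance at 620 nm. Reporter activity is stated as fold change over agonist-alone wells. Wells with IncuCyte confluency under 70% of agonist controls in both mask sets were counted as cytotoxic.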

RAW-Dual [2] = test: NF-kB SEAP reporter activity, fold change vs agonist alone; cytotoxicity flag (confluency mask): not cytotoxic; higher = enhanced NF-kB activity
Procedure, shortened: as §1

RAW-Dual [3] = test: NF-kB SEAP reporter activity, fold change vs agonist alone; cytotoxicity flag (confluency mask): cytotoxic (confluency <70% of control); higher = enhanced NF-kB activity
Procedure, shortened: as §1

[4] = library stock concentration (final ~1000-fold dilution): 10 mM, cytotoxicity flag (confluency mask): not cytotoxic, agonist: Imiquimod (TLR7) […]
[5] = library stock concentration (final ~1000-fold dilution): 10 mM, cytotoxicity flag (confluency mask): not cytotoxic, agonist: MPLA (TLR4) […]
[6] = agonist: ODN 1826 (TLR9) 0.5 ug/mL
[7] = agonist: Pam2CSK4 (TLR2/6) 0.1 ug/mL
[8] = agonist: Pam3CSK4 (TLR2/1) 0.1 ug/mL
[9] = library stock concentration (final ~1000-fold dilution): 10 mM, cytotoxicity flag (confluency mask): cytotoxic (confluency <70% of control), agonist: Imiquimod (TLR7) […]
[10] = library stock concentration (final ~1000-fold dilution): 10 mM, cytotoxicity flag (confluency mask): cytotoxic (confluency <70% of control), agonist: MPLA (TLR4) […]

For `CC(C)n1cc(-c2ccc3c(c2)N(C)CC3)c2c(NS(=O)(=O)c3ccn(C)n3)ccnc21`, the “NF-kB SEAP reporter activity” value (RAW-Dual [1]; [4]) was 0.948 and the “NF-kB SEAP reporter activity” value (RAW-Dual [1]; [5]) was 1.02.
In the case of `Cl.Cl.NC1CCC(NC2CC2c2ccccc2)CC1` (configuration not stated), the “NF-kB SEAP reporter activity” value (RAW-Dual [1]; [4]) is reported as 1.03 and the “NF-kB SEAP reporter activity” value (RAW-Dual [1]; [5]) is reported as 1.37.
For `Cl.Cl.NC1CCC(NC2CC2c2ccccc2)CC1` (configuration not stated) (library stock concentration (final ~1000-fold dilution): 10 mM), the “NF-kB SEAP reporter activity” value (RAW-Dual [2]; agonist: LPS (TLR4) 0.1 ug/mL) was 1.25, the “NF-kB SEAP reporter activity” value (RAW-Dual [2]; [6]) was 0.222 and the “NF-kB SEAP reporter activity” value (RAW-Dual [2]; [7]) was 0.869. For the same compound, the “NF-kB SEAP reporter activity” value (RAW-Dual [2]; [8]) was 0.615.
For `O=[N+]([O-])c1cccc2cn[nH]c12` (library stock concentration (final ~1000-fold dilution): 10 mM), the “NF-kB SEAP reporter activity” value (RAW-Dual [2]; agonist: LPS (TLR4) 0.1 ug/mL) was 0.887, the “NF-kB SEAP reporter activity” value (RAW-Dual [2]; [6]) was 1.03 and the “NF-kB SEAP reporter activity” value (RAW-Dual [2]; [7]) was 1.12. For the same compound, the “NF-kB SEAP reporter activity” value (RAW-Dual [2]; [8]) was 0.837.
For `O=[N+]([O-])c1cccc2cn[nH]c12`, the “NF-kB SEAP reporter activity” value (RAW-Dual [1]; [4]) was 1.01 and the “NF-kB SEAP reporter activity” value (RAW-Dual [1]; [5]) was 1.09.
`COc1ccccc1OCC(O)CN1CCN(CC(=O)Nc2c(C)cccc2C)CC1` (configuration not stated) was tested, and the “NF-kB SEAP reporter activity” value (RAW-Dual [1]; [4]) was 0.877 and the “NF-kB SEAP reporter activity” value (RAW-Dual [1]; [5]) was 0.855.
With `COc1ccccc1OCC(O)CN1CCN(CC(=O)Nc2c(C)cccc2C)CC1` (configuration not stated) (library stock concentration (final ~1000-fold dilution): 10 mM) the “NF-kB SEAP reporter activity” value (RAW-Dual [2]; agonist: LPS (TLR4) 0.1 ug/mL) was 1.09, the “NF-kB SEAP reporter activity” value (RAW-Dual [2]; [6]) was 0.987 and the “NF-kB SEAP reporter activity” value (RAW-Dual [2]; [7]) was 1.04. The “NF-kB SEAP reporter activity” value (RAW-Dual [2]; [8]) was 1.17.
With `CCCNCC(O)COc1ccccc1C(=O)CCc1ccccc1` (configuration not stated) the “NF-kB SEAP reporter activity” value (RAW-Dual [1]; [4]) was 1.3 and the “NF-kB SEAP reporter activity” value (RAW-Dual [1]; [5]) was 1.21.
With `CCCNCC(O)COc1ccccc1C(=O)CCc1ccccc1` (configuration not stated) (library stock concentration (final ~1000-fold dilution): 10 mM) the “NF-kB SEAP reporter activity” value (RAW-Dual [2]; agonist: LPS (TLR4) 0.1 ug/mL) was 1.07, the “NF-kB SEAP reporter activity” value (RAW-Dual [2]; [6]) was 0.715 and the “NF-kB SEAP reporter activity” value (RAW-Dual [2]; [7]) was 0.845. For the same compound, the “NF-kB SEAP reporter activity” value (RAW-Dual [2]; [8]) was 1.1.
With `CCNC1=NC2C(OC(CO)C(O)C2O)S1` (configuration not stated) (library stock concentration (final ~1000-fold dilution): 10 mM) the “NF-kB SEAP reporter activity” value (RAW-Dual [2]; agonist: LPS (TLR4) 0.1 ug/mL) was 1.15, the “NF-kB SEAP reporter activity” value (RAW-Dual [2]; [6]) was 1.17 and the “NF-kB SEAP reporter activity” value (RAW-Dual [2]; [7]) was 1.04. The “NF-kB SEAP reporter activity” value (RAW-Dual [2]; [8]) was 1.5.
For `CCNC1=NC2C(OC(CO)C(O)C2O)S1` (configuration not stated), the “NF-kB SEAP reporter activity” value (RAW-Dual [1]; [4]) was 1 and the “NF-kB SEAP reporter activity” value (RAW-Dual [1]; [5]) was 1.17.
For `CC/C(=C(\c1ccccc1)c1ccc(OCCN(C)C)cc1)c1ccccc1.O=C(O)CC(O)(CC(=O)O)C(=O)O`, the “NF-kB SEAP reporter activity” value (RAW-Dual [1]; [9]) was 1.37 and the “NF-kB SEAP reporter activity” value (RAW-Dual [1]; [10]) was 1.38.
For `CC/C(=C(\c1ccccc1)c1ccc(OCCN(C)C)cc1)c1ccccc1.O=C(O)CC(O)(CC(=O)O)C(=O)O` (library stock concentration (final ~1000-fold dilution): 10 mM), the “NF-kB SEAP reporter activity” value (RAW-Dual [3]; agonist: LPS (TLR4) 0.1 ug/mL) was 0.402, the “NF-kB SEAP reporter activity” value (RAW-Dual [3]; [6]) was 0.692 and the “NF-kB SEAP reporter activity” value (RAW-Dual [3]; [7]) was 0.294. For the same compound, the “NF-kB SEAP reporter activity” value (RAW-Dual [3]; [8]) was 0.69.
With `CCn1cc(-c2cccc(C(F)(F)F)c2)c2sc(C(=N)NC3CCS(=O)(=O)CC3)cc2c1=O` the “NF-kB SEAP reporter activity” value (RAW-Dual [1]; [9]) was 1.33 and the “NF-kB SEAP reporter activity” value (RAW-Dual [1]; [10]) was 2.16.
`CCn1cc(-c2cccc(C(F)(F)F)c2)c2sc(C(=N)NC3CCS(=O)(=O)CC3)cc2c1=O` (library stock concentration (final ~1000-fold dilution): 10 mM) was tested, and the “NF-kB SEAP reporter activity” value (RAW-Dual [3]; agonist: LPS (TLR4) 0.1 ug/mL) was 3.13, the “NF-kB SEAP reporter activity” value (RAW-Dual [3]; [6]) was 0.721 and the “NF-kB SEAP reporter activity” value (RAW-Dual [3]; [7]) was 1.15. For the same compound, the “NF-kB SEAP reporter activity” value (RAW-Dual [3]; [8]) was 1.12.
In the case of `Cn1c(=O)cc(N2CCCC(N)C2)n(Cc2ccccc2C#N)c1=O` (configuration not stated), the “NF-kB SEAP reporter activity” value (RAW-Dual [1]; [4]) is reported as 1.08.
`Cn1c(=O)cc(N2CCCC(N)C2)n(Cc2ccccc2C#N)c1=O` (configuration not stated) (library stock concentration (final ~1000-fold dilution): 10 mM) was tested, and the “NF-kB SEAP reporter activity” value (RAW-Dual [2]; agonist: LPS (TLR4) 0.1 ug/mL) was 1.04 and 1.31, the “NF-kB SEAP reporter activity” value (RAW-Dual [2]; [6]) was 0.953 and 1.01 and the “NF-kB SEAP reporter activity” value (RAW-Dual [2]; [7]) was 1.16 and 1.1. The “NF-kB SEAP reporter activity” value (RAW-Dual [2]; [8]) was 0.92 and 1.24.
With `CC(C)c1c(C(=O)Nc2ccccc2)c(-c2ccccc2)c(-c2ccc(F)cc2)n1CCC(O)CC(O)CC(=O)O` (configuration not stated) (library stock concentration (final ~1000-fold dilution): 10 mM) the “NF-kB SEAP reporter activity” value (RAW-Dual [2]; agonist: LPS (TLR4) 0.1 ug/mL) was 2.93.
With `Cc1ccccc1C(OCCN(C)C)c1ccccc1.O=C(O)CC(O)(CC(=O)O)C(=O)O` (configuration not stated) the “NF-kB SEAP reporter activity” value (RAW-Dual [1]; [4]) was 1.41 and the “NF-kB SEAP reporter activity” value (RAW-Dual [1]; [5]) was 1.16.
With `Cc1ccccc1C(OCCN(C)C)c1ccccc1.O=C(O)CC(O)(CC(=O)O)C(=O)O` (configuration not stated) (library stock concentration (final ~1000-fold dilution): 10 mM) the “NF-kB SEAP reporter activity” value (RAW-Dual [2]; agonist: LPS (TLR4) 0.1 ug/mL) was 1.42, the “NF-kB SEAP reporter activity” value (RAW-Dual [2]; [6]) was 0.679 and the “NF-kB SEAP reporter activity” value (RAW-Dual [2]; [7]) was 0.926. The “NF-kB SEAP reporter activity” value (RAW-Dual [2]; [8]) was 1.17.
For `O=C(O)C=Cc1ccc(Cn2ccnc2)cc1` (library stock concentration (final ~1000-fold dilution): 10 mM water), the “NF-kB SEAP reporter activity” value (RAW-Dual [2]; agonist: LPS (TLR4) 0.1 ug/mL) was 1.17, the “NF-kB SEAP reporter activity” value (RAW-Dual [2]; [6]) was 1.14 and the “NF-kB SEAP reporter activity” value (RAW-Dual [2]; [7]) was 1.11. For the same compound, the “NF-kB SEAP reporter activity” value (RAW-Dual [2]; [8]) was 1.03.
For `O=C(O)C=Cc1ccc(Cn2ccnc2)cc1`, the “NF-kB SEAP reporter activity” value (RAW-Dual [1]; library stock concentration (final ~1000-fold dilution): 10 mM water, cytotoxicity flag (confluency mask): not cytotoxic, agonist: MPLA (TLR4) […]) was 1.08.
`CC(=O)Nc1nc(C)c(-c2ccc(Cl)c(S(=O)(=O)NCCO)c2)s1` (library stock concentration (final ~1000-fold dilution): 10 mM) was tested, and the “NF-kB SEAP reporter activity” value (RAW-Dual [2]; agonist: LPS (TLR4) 0.1 ug/mL) was 1.28, the “NF-kB SEAP reporter activity” value (RAW-Dual [2]; [6]) was 0.966 and the “NF-kB SEAP reporter activity” value (RAW-Dual [2]; [7]) was 1.17. The “NF-kB SEAP reporter activity” value (RAW-Dual [2]; [8]) was 0.961.
With `CC(=O)Nc1nc(C)c(-c2ccc(Cl)c(S(=O)(=O)NCCO)c2)s1` the “NF-kB SEAP reporter activity” value (RAW-Dual [1]; [4]) was 0.591 and the “NF-kB SEAP reporter activity” value (RAW-Dual [1]; [5]) was 1.4.
